# Measurements reported in the RNAGym collection of RNA variant scans (doi:10.7554/elife.90254).
# The source gives no read counts; variants with many changes may rest on few reads.
# B1: LINE1-mini (parent)
# chain: GGCAGAGCUCAACACAGCGUGGCAAAGUGGCUGUGGCUAGACUGCC
# Variants of: B1
# Test: self-cleavage, relative activity (ratio to wild type); higher = more cleavage; in vitro, sequencing; the parent is a self-cleaving ribozyme
row,Variant,self-cleavage
1,GGCAGAGCUCAAAACAGCGUGGCAAAGUGCCUGGGGCUAGACUGCC [C13A G30C U34G],0.01
2,GGCAGAGCUCAAGACAGCGUGGCAUAGCGACUGUGGCUAGACUGCC [C13G A25U U28C G30A],0.1
3,GGCAGAGCUCAAAACAGCGUGGCAAAUUGGCUGUGGCUAGAAUGCC [C13A G27U C42A],0.05
4,GGCAGAGCUCAAGACAGCGUGGCUAUGUGGCUGUGGCUAGACUGCC [C13G A24U A26U],0.09
5,GGCAGAGCUCAAAACAGCGUAGCAAAGUGGCUGUGGCUUGACUGGC [C13A G21A A39U C45G],0.07
6,GGCAGAGCUCAAAACAGCGUGGCAAAGUGGCUGUUGCUAGAGUGCC [C13A G35U C42G],0.09
7,GGCAGAGCUCAAAACAGCGCUGCAAAGUGGCUGUGGCUAGACUACC [C13A U20C G21U G44A],0.05
8,GGCAGAGCUCAAGUCAGCGUGGCAAAGUGUCUGUGGCUAGACUGCC [C13G A14U G30U],0.48
9,GGCAGAGCUCAAAACAGCGUGGCAAAGUCGCUGUGGCUAGAUUGCC [C13A G29C C42U],0.14
10,GGCAGAGCUCAAGACUGCGUGGCAAAGUGGUUGUGGCUAGACUGUC [C13G A16U C31U C45U],0
11,GGCAGAGCUCAAGACAGCGUGGCGAAGUGGCUCUGGCUAGACUGCC [C13G A24G G33C],0.01
12,GGCAGAGCUCAAAACAGCGUGGCAAACUGGCUGUGGCUAGACUGCA [C13A G27C C46A],0.12
13,GGCAGAGCUCAAAACAGCGUGGCAAAGUGGCUGUGUCUAGCCUGCC [C13A G36U A41C],0
14,GGCAGAGCUCAAAACAGCGUGCCAAAGUGGAUGUGGCUAGACUGCC [C13A G22C C31A],0.04
15,GGCAGAGCUCAAAACAGCGUGACAAAGUGGAUGUGGCUAGACAGCC [C13A G22A C31A U43A],0.02
16,GGCAGAGCUCAAAACAGCGUGGCAAAGAGGCUGUGGCCAGACUGUC [C13A U28A U38C C45U],0.07
17,GGCAGAGCUCAAGGCAGCGUGGUAAAGUGGCUGUGGGUAGACUGCU [C13G A14G C23U C37G C46U],0.02
18,GGCAGAGCUCAAGCCAGCGUGGGAAAAUGGCUUUGGCUAGACUGGC [C13G A14C C23G G27A G33U C45G],0.01
19,GGCAGAGCUCAAGACAGCGUGGCAGAGUGGCUGUGGCUAGUAUGCC [C13G A25G A41U C42A],0.02

row,Variant,self-cleavage
1,GGCAGAGCUCAAAACAGCGUUGCAAAGUCGCUGUGGCUAGACUGCC [C13A G21U G29C],0.03
2,GGCAGAGCUCAAAACAGCGUGCCCAAUUCGCUGUGGCUAGACUGCC [C13A G22C A24C G27U G29C],0.02
3,GGCAGAGCUCAAAACAGCGGGGCAAAGUGGCUGUGGCUAGCCUACC [C13A U20G A41C G44A],0.01
4,GGCAGAGCUCAAAACAGCGUGGCAAAGUGGCUGUGACUAAACUGCC [C13A G36A G40A],0.29
5,GGCAGAGCUCAAAACAGCUUAGCAAAGUGGCUGUGGCUAGACUGCC [C13A G19U G21A],0.21
6,GGCAGAGCUCAAGACAGCGUGGCUAAGUGGCUGGGGCUAGACUGCC [C13G A24U U34G],0.14
7,GGCAGAGCUCAAGACGGAGUGGCAAAGUUGCUGCGGCUAGAGUGCC [C13G A16G C18A G29U U34C C42G],0
8,GGCAGAGCUCAAAACAGCGUGGCAAAGCGCCUGUGUCUAGACUGCU [C13A U28C G30C G36U C46U],0.13
9,GGCAGAGCUCAAAACAGCGUGGCAAAGUGGCUUUGGCCUCACUGCA [C13A G33U U38C A39U G40C C46A],0.02
10,GGCAGAGCUCAAGCCAGCGUGGCAAGGUGGGGGUGGCUAGACUGCC [C13G A14C A26G C31G U32G],0.01
11,GGCAGAGCUCAAGCCAUCGUGGCAAAGUGGCAGUGGCUAGACUGCC [C13G A14C G17U U32A],0.75
12,GGCAGAGCUCAAAACAGCGUGACAAAGUGUAUGCGGCUAGCCUGCC [C13A G22A G30U C31A U34C A41C],0.2
13,GGCAGAGCUCAAAACAGCGUGGCAAAGUGGCGGUGGCUUGACUGCC [C13A U32G A39U],0.15
14,GGCAGAGCUCAAAACAGCGUGGCAAACUGGUUGUGGCUUCACUGCC [C13A G27C C31U A39U G40C],0.04
15,GGCAGAGCUCAAAACAGCGUGGCAAAUCUGCUGAGGCUAGACUGCC [C13A G27U U28C G29U U34A],0.06
16,GGCAGAGCUCAAAACAGCGUGGCAAAGUGCCUAUGGCUAGACUGCC [C13A G30C G33A],0.27
17,GGCAGAGCUCAAAACAGCGUGCCAAAGUGGCUGUGGAUAGACUGCC [C13A G22C C37A],0.02
18,GGCAGAGCUCAAAACAGCGUGGCAAAGUGGCUGUAGCUAGCCUGCC [C13A G35A A41C],0.07
19,GGCAGAGCUCAAGACUGCAUGGCAAAGUGGCAGUGGCUAGACUGCC [C13G A16U G19A U32A],0.06

row,Variant,self-cleavage
1,GGCAGAGCUCAAAACAGCGUGGCAAAGUGGCUGUGUCUAGACUGGC [C13A G36U C45G],0.08
2,GGCAGAGCUCAAAACAGCGUGGCAAAAUGGCUAUGGCAAGACUGCC [C13A G27A G33A U38A],0.04
3,GGCAGAGCUCAAAACAGCGUCGCAAACUGGCUGUGGAUAGACUGCU [C13A G21C G27C C37A C46U],0.01
4,GGCAGAGCUCAAGACAGCGUGGCAAUGUCGCUGUGGCUACACUGCC [C13G A26U G29C G40C],0.02
5,GGCAGAGCUCAAGACAGCGUGGCAAGGUUGCUGUGGCUAGACUGCC [C13G A26G G29U],0.12
6,GGCAGAGCUCAAGACGGCGGGGCAAAGUGGCUGUGGCUAGACUGCC [C13G A16G U20G],0.01
7,GGCAGAGCUCAAAACAGCGUGGCAAAGUGGCUGCGGCCAGACUGCC [C13A U34C U38C],0.06
8,GGCAGAGCUCAAGCCAGCGCGGCAAAUUGGCUCUGGCUAGACUGCC [C13G A14C U20C G27U G33C],0.01
9,GGCAGAGCUCAAAACAGCGUGGCAAAGAGGUUAUGGCUAGAUUGCC [C13A U28A C31U G33A C42U],0.04
10,GGCAGAGCUCAAAACAGCGUAGCAAUGUGGCUGUGGCAAGUCUGCC [C13A G21A A26U U38A A41U],0.01
11,GGCAGAGCUCAAAACAGCGUGGCAAAGUGGCUGUGGCUAUGCCGCC [C13A G40U A41G U43C],0.06
12,GGCAGAGCUCAAGCCAUCAUCGCAAAGUGGCUGUGGCUAGACUGCC [C13G A14C G17U G19A G21C],0.03
13,GGCAGAGCUCAAAACAGCGAGGCAUAGUGGCUGUGGCUAGACUGCC [C13A U20A A25U],0.13
14,GGCAGAGCUCAAAACAGCGUAGCAAAGUGGGUGUGGCUAGACUGCG [C13A G21A C31G C46G],0.02
15,GGCAGAGCUCAAGACGGCGUGGCAUAGUCGCUGUGGCUAGACUGCC [C13G A16G A25U G29C],0.01
16,GGCAGAGCUCAAGUCAGCGUGACAAAGUGGCUGUGGCUAGACUGCC [C13G A14U G22A],0.04
17,GGCAGAGCUCAAGACAGCGUGGCAAGGUGGCUGUGGUUAGACUACC [C13G A26G C37U G44A],0.09
18,GGCAGAGCUCAAAACAGCGAGGCAAAGUUGCUGUGGCUAGACUGCU [C13A U20A G29U C46U],0.08
